Drawing on patent US7777042B2, “N-sulfonylpipecolic acid derivative FKBP binding composition and pharmaceutical use thereof” (Aventis Pharmaceuticals Inc., priority 2004, dated 2010), this text covers Ki and EC50 for 44 compounds.

In one assay the target is T1, human FK506 binding protein FKBP12 (Homo sapiens, UniProt P62942).
T1 construct: made in house
T1 sequence (P62942 whole entry): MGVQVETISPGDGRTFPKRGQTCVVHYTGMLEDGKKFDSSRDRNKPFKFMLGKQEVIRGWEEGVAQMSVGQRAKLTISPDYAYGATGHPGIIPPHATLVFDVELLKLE
The experiment in a line: Binding affinity to FK506 binding protein ([3H]FK506 scintillation proximity assay with His6-FKBP12). Particulars: His6-FKBP12, 3.5 nM [3H]FK506; IC50 converted to Ki by Cheng-Prusoff; read-out: FKBP Ki. The method, then: Measurement of binding affinity to FK506 binding proteins:
A construct containing the FKBP coding sequence (NCBI Locus BC005147, as shown in FIG. 2) is expressed in frame with an eight amino acid tag ((histidine)-6-aspartate-tyrosine) on the N-terminus to yield His6-FKBP12. Purified His6-FKBP12 protein is used for measurement of binding affinity in 96 well microtiter format. All wells contain 3.5 nM [^3H]FK506, 50 mM Hepes-NaOH (pH 7.7), 0.05% bovine serum albumin, 90 μg yttrium silicate copper chelate scintillation proximity beads (Amersham®), and 12 ng His6-FKBP12 in 200 μl final volume. Total and non-specific binding is defined as that observed in the absence and presence of 1 μM unlabeled FK506. Compounds of the present invention were evaluated for FKBP target affinity by including various concentrations of the unlabeled test compounds in the incubation mixture. […] The reaction was initiated by adding the His6-FKBP12, then the plates were sealed and placed on a laboratory shaker for 1 hour at room temperature. Bound radioactivity was determined using a plate-based scintillation counter (TopCount®, Packard®). Inhibition constants (IC50 values) were obtained using non-linear regression analysis and converted to Ki values using the Cheng-Prusoff correction procedure.
The binding of the compounds of the present invention to FKBP12 is exemplified by the Ki values of the following Table 1.
In general terms: In a scintillation proximity assay essentially only radioactivity close to the scintillant gives light.
`CCCOc1cccc(S(=O)(=O)N2CCCC[C@H]2C(=O)N[C@@H](Cc2ccccc2)C(N)=O)c1`: the Ki came out at 331 nM.

Turning to `COc1ccc(C[C@H](NC(=O)[C@@H]2CCCCN2S(=O)(=O)c2cccc(C(F)(F)F)c2)C(=O)Nc2ccc(N3CCOCC3)cc2)cc1` [drawing 40], the Ki was 0.24 nM.

In the case of `CC(O)c1ccc(C[C@H](NC(=O)[C@@H]2CCCCN2S(=O)(=O)c2cccc(C(F)(F)F)c2)C(=O)Nc2ccc(N(C)C)cc2)cc1` (some centres unmarked), the Ki came to 18.1 nM.

For `COc1ccc(C[C@H](NC(=O)[C@@H]2CCCCN2S(=O)(=O)c2cccc(C(F)(F)F)c2)C(=O)NCCN2CCNCC2)cc1`, the Ki came out at 3.62 nM.

As to `O=C(N[C@@H](Cc1ccc(OCc2ccccc2)cc1)c1nc2ccccc2[nH]1)[C@@H]1CCCCN1S(=O)(=O)c1cccc(C(F)(F)F)c1`, the Ki amounted to 88.1 nM.

For the compound `CC(=O)c1ccc(C[C@H](NC(=O)[C@@H]2CCCCN2S(=O)(=O)c2cccc(C(F)(F)F)c2)C(=O)Nc2ccc(N3CCOCC3)cc2)cc1` [drawing 51], the Ki stood at 8.47 nM.

Turning to `COc1ccc(C[C@H](NC(=O)[C@@H]2CCCCN2S(=O)(=O)c2ccccc2)C(=O)NCCC(C)(C)C)cc1` [drawing 27], the inhibitory constant (Ki) worked out at 2.16 nM.

As to `COc1ccc(C[C@H](NC(=O)[C@@H]2CCCCN2S(=O)(=O)c2cccc(C(F)(F)F)c2)C(=O)NC2CCOCC2)cc1OC` [drawing 35], the Ki was 2.91 nM.

Turning to `O=C(NCCc1c[nH]c2ccccc12)[C@@H]1CCCCN1S(=O)(=O)c1ccccc1`, the inhibitory constant (Ki) was over 100000 nM.

Take `NC(=O)[C@H](Cc1c[nH]c2ccccc12)NC(=O)[C@@H]1CCCCN1S(=O)(=O)c1ccccc1`: the Ki was determined as 191 nM.

For the compound `Cc1ccccc1C[C@H](NC(=O)[C@@H]1CCCCN1S(=O)(=O)c1ccccc1)C(N)=O`, the inhibitory constant (Ki) was found to be 456 nM.

In the case of `Cc1ccc(C[C@H](NC(=O)[C@@H]2CCCCN2S(=O)(=O)c2cccc(C(F)(F)F)c2)C(=O)NC2CCCCC2)cc1` [drawing 54], the Ki stood at 30.1 nM.

For `CCOc1ccc(NC(=O)[C@H](Cc2ccc(C(C)O)cc2)NC(=O)[C@@H]2CCCCN2S(=O)(=O)c2cccc(C(F)(F)F)c2)cc1` (some centres unmarked), the inhibitory constant (Ki) turned out to be 5.47 nM.

With `CN(C)CCCCNC(=O)[C@H](Cc1ccc(F)cc1)NC(=O)[C@@H]1CCCCN1S(=O)(=O)c1cccc(F)c1`, the inhibition constant (Ki) amounted to 19.8 nM.

In the case of `CC(C)Oc1ccc(C[C@H](NC(=O)[C@@H]2CCCCN2S(=O)(=O)c2cccc(C(F)(F)F)c2)C(=O)NC2CCOCC2)cc1` [drawing 59], the Ki turned out to be 2.7 nM.

In the case of `C=CCOc1ccc(C[C@H](NC(=O)[C@@H]2CCCCN2S(=O)(=O)c2ccccc2)C(=O)NC2CCCCC2)cc1` [drawing 53], the Ki amounted to 12.8 nM.

As to `NC(=O)[C@H](Cc1ccccc1)NC(=O)[C@@H]1CCCCN1S(=O)(=O)c1cccc(O)c1`, the inhibition constant (Ki) worked out at 556 nM.

Turning to `CC(O)c1ccc(C[C@H](NC(=O)[C@@H]2CCCCN2S(=O)(=O)c2cccc(C(F)(F)F)c2)C(=O)Nc2ccc(N3CCOCC3)cc2)cc1` (some centres unmarked) [drawing 42], the inhibition constant (Ki) came out at 2.59 nM.

For `COc1cccc(S(=O)(=O)N2CCCC[C@H]2C(=O)N[C@@H](Cc2c[nH]c3ccccc23)C(=O)Nc2ccc3ccccc3c2)c1`, the Ki stood at 27.1 nM.

On to `Cc1ccc(C[C@H](NC(=O)[C@@H]2CCCCN2S(=O)(=O)c2cccc(C(F)(F)F)c2)C(=O)NCCCCN)cc1` [drawing 37], for which the inhibition constant (Ki) came to 1.55 nM.

On to `CC(C)c1ccc(C[C@H](NC(=O)[C@@H]2CCCCN2S(=O)(=O)c2ccccc2)C(=O)NCC(C)(C)CO)cc1`, for which the inhibitory constant (Ki) was 1.91 nM.

Turning to `CC(C)Oc1ccc(C[C@H](NC(=O)[C@@H]2CCCCN2S(=O)(=O)c2cccc(F)c2)C(=O)NC2CC(C)(C)NC(C)(C)C2)cc1` [drawing 62], the inhibitory constant (Ki) was 4.93 nM.

On to `O=C(N[C@@H](Cc1ccccc1)c1nc2ccccc2[nH]1)[C@@H]1CCCCN1S(=O)(=O)c1cccc(C(F)(F)F)c1`, for which the inhibition constant (Ki) worked out at 97.1 nM.

With `Cc1ccc(C[C@H](NC(=O)[C@@H]2CCCCN2S(=O)(=O)c2ccccc2)C(=O)NC2CCCCC2)cc1` [drawing 26], the Ki was 42.3 nM.

As to `COc1ccc(C[C@H](NC(=O)[C@@H]2CCCCN2S(=O)(=O)c2cccc(F)c2)C(=O)NC2CCOCC2)cc1`, the Ki is 281 nM.

As to `CCOc1ccc(NC(=O)[C@H](Cc2ccc(C(C)=O)cc2)NC(=O)[C@@H]2CCCCN2S(=O)(=O)c2cccc(C(F)(F)F)c2)cc1`, the Ki was determined as 2.54 nM.

In the case of `CC(C)(C)NC(=O)[C@H](Cc1c[nH]c2ccccc12)NC(=O)[C@@H]1CCCCN1S(=O)(=O)c1ccccc1`, the Ki is 151 nM.

Consider `C[C@](Cc1ccc(OC2CCCC2)cc1)(NC(=O)[C@@H]1CCCCN1S(=O)(=O)c1cccc(F)c1)C(=O)NC1CCOCC1`, for which the Ki was 22.2 nM.

On to `CN(C)CCOc1ccc(C[C@H](NC(=O)[C@@H]2CCCCN2S(=O)(=O)c2cccc(C(F)(F)F)c2)C(=O)NC2CCCCC2)cc1`, for which the Ki stood at 4.72 nM.

For `COc1ccc(C[C@H](NC(=O)[C@@H]2CCCCN2S(=O)(=O)c2cccc(C(F)(F)F)c2)C(=O)NC2CCOCC2)cc1` [drawing 39], the Ki stood at 11.3 nM.

For `COc1ccc(C[C@H](NC(=O)[C@@H]2CCCCN2S(=O)(=O)c2cccc(C(F)(F)F)c2)C(=O)NC(C)(C)CO)cc1`, the inhibition constant Ki stood at 9.13 nM.

For the compound `CNC(=O)[C@H](Cc1c[nH]c2ccccc12)NC(=O)[C@@H]1CCCCN1S(=O)(=O)c1cc(Cl)cc(Cl)c1`, the Ki was found to be 25.7 nM.

On to `C=CCOc1ccc(C[C@H](NC(=O)[C@@H]2CCCCN2S(=O)(=O)c2cccc(C(F)(F)F)c2)C(=O)NC2CCCCC2)cc1`, for which the Ki turned out to be 5.08 nM.

In the case of `NC(=O)[C@H](Cc1c[nH]c2ccccc12)NC(=O)[C@@H]1CCCCN1S(=O)(=O)/C=C/c1ccccc1`, the Ki stood at 842 nM.

In the case of `O=C(Nc1ccc(N2CCOCC2)cc1)[C@H](Cc1ccc(C(F)(F)F)cc1)NC(=O)[C@@H]1CCCCN1S(=O)(=O)c1cccc(C(F)(F)F)c1`, the Ki stood at 2.16 nM.

`COc1ccc(C[C@H](NC(=O)[C@@H]2CCCCN2S(=O)(=O)c2cccc(C(F)(F)F)c2)C(=O)Nc2ccc(N(C)C)cc2)cc1` (single isomer, unassigned): the inhibition constant (Ki) turned out to be 7.25 nM.

Turning to `CN(C)C(=O)[C@H](Cc1c[nH]c2ccccc12)NC(=O)[C@@H]1CCCCN1S(=O)(=O)c1ccccc1`, the Ki stood at 3870 nM.

`COCCCOc1ccc(C[C@H](NC(=O)[C@@H]2CCCCN2S(=O)(=O)c2cccc(F)c2)C(=O)NC2CCOCC2)cc1`: the Ki worked out at 3.84 nM.

For `COC[C@H](C)NC(=O)C(Cc1ccc(OCCCF)cc1)NC(=O)[C@@H]1CCCCN1S(=O)(=O)c1cccc(F)c1` (some centres unmarked), the inhibitory constant (Ki) was determined as 40.2 nM.

Turning to `NC(=O)[C@@H](Cc1c[nH]c2ccccc12)NC(=O)[C@@H]1CCCCN1S(=O)(=O)c1ccccc1`, the Ki worked out at 26400 nM.

For `NC(=O)[C@H](Cc1c[nH]c2ccccc12)NC(=O)[C@@H]1CCCCN1S(=O)(=O)c1cc(Br)c(Br)s1`, the inhibition constant (Ki) was determined as 79 nM.

As to `CC1(C)CC(NC(=O)[C@H](Cc2ccc(OCCCF)cc2)NC(=O)[C@@H]2CCCCN2S(=O)(=O)c2cccc(F)c2)CC(C)(C)N1` [drawing 36], the Ki was determined as 4.54 nM.

In the case of `NC(=O)[C@H](Cc1ccccc1)NC(=O)[C@@H]1CCCCN1S(=O)(=O)c1ccccc1`, the Ki came out at 517 nM.

In another assay the test system is FKBP12-mediated signaling in Jurkat cells containing IFNγ-Luc. The experiment in a line: Jurkat IFNγ-Luc reporter: intrinsic inhibition of PMA/A23187-mediated increases in reporter activity. The class given is cell-based. Particulars: Homo sapiens, PMA 10 ng/ml + A23187 1.0 μM, read-out: EC50 (half-maximal inhibition of PMA/A23187-mediated increases in reporter activity).
For the compound `C=CC[C@@H]1/C=C(\C)C[C@H](C)C[C@H](OC)[C@H]2O[C@@](O)(C(=O)C(=O)N3CCCC[C@H]3C(=O)O[C@H](/C(C)=C/[C@@H]3CC[C@@H](O)[C@H](OC)C3)[C@H](C)[C@@H](O)CC1=O)[C@H](C)C[C@@H]2OC` [FK506], the EC50 amounted to 0.7 nM.

Broadly, the Ki is the dissociation constant of the complex between target and ligand, obtained from inhibition or displacement.
